# Measured values taken from PubChem BioAssay AID504466 (National Center for Advancing Translational Sciences (NCATS), 2011).
# In all, about 330,000 compounds went through this assay and about 4,200 (1.3%) were called active. The inconclusive results got no clear call from the source; some entries with a clear call stand among them for comparison. The call rests on the fitted dose curve; in most records, active means well fitted activation curve with a large enough effect; inconclusive means small, poorly fitted or top-dose-only effect; inactive means no such curve, though single readings can be large or run the other way. Potencies beside an inconclusive call are fits to weak or partial responses and may not hold up.
# Experiment: qHTS screen for small molecules that induce genotoxicity in human embryonic kidney (HEK293T) cells expressing luciferase-tagged ELG1; further: nearly all actives have a fitted effect of over 60% in size
# Conditions: HEK293T ELG1-luciferase reporter, luminescence, 16 h; series mostly up to 46 µM
# Summary of the method: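 Genotoxic stress is detected as increased luminescence from luciferase-tagged ELG1 in HEK293T cells, measured with ONE-Glo after a 16 hr treatment at 37 °C.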
# Potency means the concentration at half of the fitted maximal effect; tags describe the fitted curve by direction and shape.
row,SMILES,Potency
1,CCCC1(CCC)NC(=O)N(CC(=O)Nc2ccc3c(c2)OCCO3)C1=O,inactive
2,COC(=O)c1sccc1NC(=O)Cc1ccc(OC)cc1,inactive
3,O=c1[nH]nc(-c2ccc(F)cc2)cc1Cc1ccc(F)cc1,inactive
4,CCN1CCN(c2nc(C)nc3c2sc(=S)n3C)CC1,inactive
5,CCC(C)C(=O)Nc1nnc(-c2cccs2)s1 (stereo not drawn),"inconclusive: 16.4 µM [activator, partial curve, poor fit]"
6,Cc1nc(-c2ccc3c(c2)OCCCO3)cs1,"inconclusive: 4.11 µM [activator, full curve]"
7,CC(=O)c1sc(Nc2nc3cc4c(cc3s2)OCO4)nc1C,"inconclusive: 8.2 µM [activator, partial curve, poor fit]"
8,CCOC(=O)c1ccc(OS(=O)(=O)c2ccccc2)c(OC)c1,"inconclusive: 5.8 µM [activator, partial curve]"
9,COc1ccc(C(=O)c2ccccc2)c(O)c1,"inconclusive: 18.4 µM [activator, partial curve, poor fit]"
10,COc1cccc(/C=C2\CCC(C3CCCC3)C2=O)c1OC (stereo not drawn),"inconclusive: 5.8 µM [activator, partial curve]"
11,C/C(=C\c1ccccc1)C(=O)Nc1nccs1,"inconclusive: 2.91 µM [activator, full curve, poor fit]"
12,CCN1CCN(Cc2ccc(NC(=O)Nc3ccccc3Cl)cc2)CC1,active: 18.4 µM
13,CC(=O)c1ccc(NC(=O)c2onc(C)c2Cl)cc1,"inconclusive: 8.2 µM [activator, partial curve]"
14,CN(C)c1nc(-c2ccc([N+](=O)[O-])cc2)cs1,active: 11.6 µM
15,Cc1ccc(C(=O)Oc2oc(-c3ccccc3)nc2C=Nc2ccc(N(C)C)cc2)cc1,"inconclusive: 2.31 µM [activator, full curve]"
16,COCc1nn2c(N)c(-c3ccccc3)cnc2c1-c1ccccc1,"inconclusive: 6.51 µM [activator, partial curve, poor fit]"
17,COc1cccc(/C=N/Nc2ncnc3scc(-c4ccccc4)c23)c1OC,inactive
18,CCCOC(=O)c1ccc(OCC(O)Cn2c(C)nc3ccccc32)cc1 (stereo not drawn),active: 10.3 µM
19,NC(=O)c1ccc(NC(=O)CNC(c2ccccc2)c2ccccc2)cc1,inactive
20,Cc1nc2cc(NC(=O)NCCC3=CCCCC3)ccc2o1,active: 14.6 µM
21,CCN(CC)c1ccc(C2C(C(=O)OC)=C(C)NC(C)=C2C(=O)OC)cc1,inactive
22,O=C(NCCc1ccccc1)c1ccc([N+](=O)[O-])cc1,"inconclusive: 0.58 µM [activator, full curve, poor fit]"
23,Cc1cc(C(=O)Nc2cccc(O)c2)c(C)o1,"inconclusive: 25.9 µM [activator, partial curve, poor fit]"
24,CNc1nc(-c2ccccc2)nnc1C(F)(F)F,"inconclusive: 32.6 µM [activator, partial curve, poor fit]"

row,SMILES,Potency
1,CC(C)c1cc(C(=O)N/N=C/c2cccnc2)cs1,inactive
2,COc1ccc(NC(=O)CSc2ccc(C)cc2)cc1,"inconclusive: 14.6 µM [activator, partial curve, poor fit]"
3,Cc1ccsc1C(=O)OCC(=O)Nc1cccc(F)c1,"inconclusive: 20.6 µM [activator, partial curve, poor fit]"
4,COc1ccccc1N(CC(=O)N1CCCCCC1)S(=O)(=O)c1ccc(C)cc1,inactive
5,CCc1ccc2oc(-c3cc(N=Cc4cccc(OC)c4O)ccc3O)nc2c1,"inconclusive: 6.51 µM [activator, partial curve, poor fit]"
6,Fc1ccc2cc(-c3ccsc3)ncc2c1,"inconclusive: 14.6 µM [activator, partial curve, poor fit]"
7,COc1ccc2nc(NC(=O)CSc3cn[nH]n3)sc2c1,"inconclusive: 5.8 µM [activator, partial curve]"
8,CCN(CC)C(=O)Cn1nnc(-c2ccc(S(C)(=O)=O)cc2)n1,inactive
9,Cc1ccc(S(=O)(=O)NCCC(=O)Nc2cc(S(=O)(=O)N(C)C)ccc2C)cc1C,inactive
10,CCN(CC(=O)NCc1ccc(F)cc1)C(=O)CCNS(=O)(=O)c1cccc(C)c1,inactive
11,COc1cccc(C2N=C(c3ccccc3C)NO2)c1OC (stereo not drawn),"inconclusive: 18.3 µM [activator, partial curve, poor fit]"
12,CCCSc1nnc(-c2ccccc2N)c(=O)[nH]1,"inconclusive: 22.4 µM [activator, single point]"
13,COc1ccc(C)cc1NC(=O)c1ccc2c(c1)OCO2,"inconclusive: 29.1 µM [activator, partial curve, poor fit]"
14,Cc1cc(/C=C2\SC(N)=NC2=O)c(C)n1-c1ccccc1,active: 7.31 µM
15,O=C1CC(c2cccs2)Sc2nc3ccccc3n21 (stereo not drawn),"inconclusive: 10.3 µM [activator, partial curve, poor fit]"
16,CCOC(=O)N1CC=C2C(C#N)=C(N)C(C#N)(C#N)[C@H](c3ccc(OC(C)C)c(OCC)c3)[C@H]2C1,inactive
17,CN1CCN(c2ccc(NC(=O)c3sc4ccccc4c3Cl)cc2)CC1,"inconclusive: 5.8 µM [activator, partial curve]"
18,O=C(Nc1ccccc1F)C(=O)Nc1cccc2ccccc12,"inconclusive: 16.4 µM [activator, partial curve, poor fit]"
19,COc1ccc2c(c1OC)C(=O)OC2,inactive
20,Nc1nc(N)nc(-c2ccc(Cl)cc2)n1,"inconclusive: 8.2 µM [activator, partial curve]"
21,Cc1ccccc1Nc1ncnc2c1cnn2-c1ccccc1,active: 8.2 µM
22,Cc1ccc(SCCC(=O)N(C)C)cc1,"inconclusive: 12.6 µM [activator, single point]"
23,CC(=O)c1cccc(OCc2cc(C(=O)N(C)Cc3ccc(C)o3)no2)c1,"inconclusive: 20.6 µM [activator, partial curve, poor fit]"
24,C/C(=N\NC(=O)c1nn(C)c(C)c1Br)c1ccc(NC(=O)c2ccc(C)s2)cc1,"inconclusive: 18.3 µM [activator, single point]"
